Test results taken from PubChem BioAssay AID360 (National Center for Advancing Translational Sciences (NCATS), 2006).
Out of some 48,000 compounds screened, about 550 (1.1%) were called active. Another 4% or so got no clear call; they are omitted. Rule as the data show it: active = potency below about 15 µM; inconclusive = mostly about 16 µM to 33 µM; inactive = weaker than that. The list shows a part of the results.

molecular target: Lysosomal acid glucosylceramidase (Homo sapiens) (UniProt P04062); assay: Glucocerebrosidase; conditions: purified enzyme, resorufin glucoside fluorescence (screen aimed at inhibitors), 20 min; series mostly up to 77 µM;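 also: the screen sought inhibitors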
Chain of UniProt P04062 (P04062 whole entry, looked up): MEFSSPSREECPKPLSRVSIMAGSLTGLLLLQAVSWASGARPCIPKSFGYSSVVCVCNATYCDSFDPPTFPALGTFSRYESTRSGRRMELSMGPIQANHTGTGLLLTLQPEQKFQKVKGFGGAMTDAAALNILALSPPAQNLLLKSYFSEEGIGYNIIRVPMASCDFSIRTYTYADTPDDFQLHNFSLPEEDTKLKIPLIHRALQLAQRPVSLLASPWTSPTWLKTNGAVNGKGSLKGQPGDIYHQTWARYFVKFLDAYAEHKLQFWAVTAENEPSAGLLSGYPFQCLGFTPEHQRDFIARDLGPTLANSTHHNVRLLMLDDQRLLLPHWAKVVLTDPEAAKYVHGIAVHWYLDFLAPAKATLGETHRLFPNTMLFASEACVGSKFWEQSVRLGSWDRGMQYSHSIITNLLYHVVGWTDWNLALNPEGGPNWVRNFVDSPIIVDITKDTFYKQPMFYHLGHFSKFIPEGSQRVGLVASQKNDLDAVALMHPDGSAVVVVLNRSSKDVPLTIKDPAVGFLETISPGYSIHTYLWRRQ
Summary of the method: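 Normal human glucocerebrosidase (0.2 nM final) was assayed with resorufin β-D-glucopyranoside (30 uM final) in 50mM citric acid/KH2PO4, 10mM sodium taurocholate, 0.01% tween-20, pH 5.9. Compounds were titrated; fluorescence (Ex 548, Em 600) read after 20 min at RT.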
Potency is read from the fitted curve at half-maximal effect.

Potency, active:
O=C(Nc1cccc(C(F)(F)F)c1)c1cc(-c2cccs2)on1 4.85 µM

Potency, inactive:
Cc1cccc(-c2noc(Cc3ccc(Cl)cc3)n2)c1 > 76.9 µM
CCOC(=O)c1nnc2cc(-c3ccc(Br)cc3)nn2c1C > 76.9 µM
O=C(O)C1CC(=O)N(Cc2ccc(F)cc2)C1 (centres undefined) > 76.9 µM
COc1ccc(C2C(=O)c3ccccc3C2=O)c(OC)c1 > 76.9 µM
CN(C)C(=O)N1CCC(C(=O)NC2CCCCCCC2)CC1 > 76.9 µM
CCCn1nnc(NC(=O)COc2ccc(C3CCCCC3)cc2)n1 > 76.9 µM
CCOc1cc(C)nc(N2CCN(C3CCCCC3)CC2)n1 > 76.9 µM
CC(=O)c1ccc(-n2nncc2C)cc1 > 76.9 µM
CCn1cc(CNC(=O)C2C3CCC(C3)C2C(=O)O)cn1 (centres undefined) > 76.9 µM
Nc1ccn(-c2ccc(Cl)cc2)c(=O)c1 > 76.9 µM
Cc1ccc(S(=O)(=O)NCCCNS(C)(=O)=O)cc1 > 76.9 µM
CCOC(=O)c1c(C)c(C(=O)NCc2ccc3c(c2)OCO3)c(C)n1CC > 76.9 µM
CCc1c(C)c2c(C)[nH]nc2oc1=O > 76.9 µM
COc1ccc(CNc2n[nH]c(NCc3ccc(OC)c(OC)c3)n2)cc1OC > 76.9 µM
Cc1ccc(-n2nnnc2SCC(=O)c2cc(C)n(CC3CCCO3)c2C)cc1 (centres undefined) > 76.9 µM
COc1ccc(NS(=O)(=O)c2ccc(Br)s2)cc1OC > 76.9 µM
COc1ccc2cnn(Cc3ccccc3)c(=O)c2c1OC > 76.9 µM
Cc1cc(C)cc(C(=O)/C=C2\NC(=O)CS2)c1 > 76.9 µM
CCn1c(COc2ccccc2C)nnc1SCC(=O)Nc1cc(C)on1 > 76.9 µM
O=C(c1c(O)c2ccccc2oc1=O)C1CCC1 > 76.9 µM
O=C(COC(=O)CCC1CCCC1)Nc1ccc(Cl)cn1 > 76.9 µM
O=C(CN1CCN(c2ccc(Cl)cc2)CC1)c1ccc2c(c1)OCO2 > 76.9 µM
COc1ccc(OC)c(S(=O)(=O)Nc2c(F)cccc2F)c1 > 76.9 µM
COc1ccc2c(c1)C=CC1(O2)N(CCO)c2ccccc2C1(C)C (centres undefined) > 76.9 µM
CC(C)CCn1nnnc1C(c1ccccc1)N1CCC(C(N)=O)CC1 (centres undefined) > 76.9 µM
Cc1ccc2cc(CN(Cc3ccco3)C(=O)NCc3ccccc3)c(=O)[nH]c2c1C > 76.9 µM
COc1cccc(NC(=O)Cn2c(-c3cncs3)nc3ccccc32)c1 > 76.9 µM
CCc1cc2c(CN3CCN(C)CC3)cc(=O)oc2cc1O
COc1ccc(NC(=O)CCN2CCCC(C)C2)cc1 (centres undefined) > 76.9 µM
COCCN(C(=O)c1cccc(OC)c1)c1nnc(-c2ccncc2)s1 > 76.9 µM
O=P(O)(O)C(O)C(F)(F)C(F)(F)C(F)(F)C(F)F (centres undefined) > 76.9 µM
COc1ccc(C(=O)C(CN2CCOCC2)c2ccccc2)cc1F (centres undefined) > 76.9 µM
CN(C)C(=O)N1CCC(C(=O)NCc2cccs2)CC1 > 76.9 µM
COCCNC(=O)CSc1nc2c(n1-c1ccccc1)CCCC2 > 76.9 µM
Cc1nnc(Oc2ccccc2F)c2ccccc12 > 76.9 µM
O=C(c1cccs1)c1coc2ccc(O)c(CN3CCOCC3)c12 > 76.9 µM
O=C(CCS(=O)(=O)c1cccc2nonc12)NC1CCCCCC1 > 76.9 µM
S=c1[nH]nc(-c2ccncc2)n1CC1CCCO1 (centres undefined) > 76.9 µM
Cc1ccc(NC(=O)c2ccco2)c(NC(=O)c2cccs2)c1 > 76.9 µM
CCCS(=O)(=O)NCc1cn2cccc(C)c2n1 > 76.9 µM
CC(=C1C(=O)c2ccccc2C1=O)N1CCN(Cc2ccccc2)CC1 > 76.9 µM
O=C(Nc1cccc(F)c1)c1c(F)c(F)c(F)c(F)c1F > 76.9 µM
C=CCn1c(NCCO)nc2c1c(=O)n(C)c(=O)n2C > 76.9 µM
CCc1c(C)nc(SC)n(CC#N)c1=O > 76.9 µM
O=C(c1cc(-c2ccc3c(c2)OCO3)on1)N1CCOCC1 > 76.9 µM
c1ccc(-c2n[nH]c(-c3ccccn3)n2)nc1 > 76.9 µM
O=C1c2ccccc2C(=O)N1CCCCSc1nnc(-c2ccc(OC(F)F)cc2)o1 > 76.9 µM
Cc1nc(SCC(=O)c2ccccc2)n[nH]1 > 76.9 µM
CCOC(=O)c1ccc(Nc2c(CC)c(C)nc3ncnn23)cc1 > 76.9 µM
CCOc1cc(NC(=O)c2ccccn2)c(OCC)cc1NC(=O)CC(C)C > 76.9 µM
CCn1c2ccccc2c2nc3cc(OC)c(OC)cc3nc21 > 76.9 µM
CC1(C)C2CCC13CS(=O)(=O)N[C@@H]3C2 (some centres undefined) > 76.9 µM
Cn1cccc1C(=O)NS(=O)(=O)c1ccccc1Cl > 76.9 µM
CCN(CC)S(=O)(=O)c1ccc2oc(C(=O)N3CCCCCC3)c(C)c2c1 > 76.9 µM
CC(C)CC1N=C2c3ccccc3N=C(SCc3cc(=O)n4ccccc4n3)N2C1=O (centres undefined) > 76.9 µM
Cn1nc(C(=O)NC2CCCCCC2)ccc1=O > 76.9 µM
COc1cc(OC)c(C2N(c3ccccn3)C(=O)C3CCCN32)cc1OC (centres undefined) > 76.9 µM
CCn1c(=O)c(C(=O)Nc2ccccc2S(N)(=O)=O)c(O)c2ccccc21 > 76.9 µM
CSc1nc(N2CCN(CCO)CC2)c2sc3nc(-c4ccco4)c4c(c3c2n1)CCC4 > 76.9 µM
CCCNc1ncnc2sc(C)c(C)c12 > 76.9 µM
COc1ccc(OC)c(NC(=O)CN2C(=O)C3(OCCCO3)c3ccccc32)c1 > 76.9 µM
c1ccc(Cn2c(SCCN3CCOCC3)nnc2-c2cccnc2)cc1 > 76.9 µM
NC(CSC12CC3CC(CC(C3)C1)C2)C(=O)O (centres undefined) > 76.9 µM
COc1cc(C(=O)N(Cc2cc3cc(C)ccc3[nH]c2=O)CC2CCCO2)cc(OC)c1OC (centres undefined) > 76.9 µM
CCOC(=O)CCCNC(=O)COC(=O)c1cc(C)cc(C)c1 > 76.9 µM
Cn1c(=O)cc(SCC(=O)N2CCCC2)c2cc(Cl)ccc21 > 76.9 µM
COC(=O)c1ccccc1NC(=O)C1CCCN(S(C)(=O)=O)C1 (centres undefined) > 76.9 µM
COc1ccc(C(=O)CN2C(=O)c3ccccc3C2=O)c(OC)c1C
O=C(COC(=O)c1cnccn1)c1ccc2c(c1)CCCC2 > 76.9 µM
Cc1ccc(C)c(-n2c(CNC(=O)c3ccco3)nnc2SCC(=O)N2CCc3ccccc32)c1 > 76.9 µM
O=S1(=O)CCN2C(c3ccco3)=CSC2=N1 > 76.9 µM
COc1cccc(-c2nnn(CCC(=O)O)n2)c1 > 76.9 µM
Cc1ccc2nc(-c3cccc(S(=O)(=O)N(C)C)c3)cn2c1 > 76.9 µM
CC(C)c1c(O)nc(SCC(=O)Nc2ccc3c(c2)CCC3)[nH]c1=O
COCCn1c(C)cc(C(=O)COC(=O)c2ccc(N3CCCC3=O)cc2)c1C > 76.9 µM
CC1(C)CC(=O)C=C(Nc2ccc(S(N)(=O)=O)cc2)C1 > 76.9 µM
COc1cc(NC(=O)CCN2CCN(c3ccccc3F)CC2)cc(OC)c1 > 76.9 µM
CC(C)n1c(SCC(N)=O)nc2c1c(=O)[nH]c(=O)n2C > 76.9 µM
N#Cc1c(NC(=O)CN2CCCCC2)sc2c1CCC2 > 76.9 µM
COc1ccc(-c2nnc(SCC(=O)NC(=O)NCc3ccco3)o2)cc1 > 76.9 µM
COc1ccc(OC)c(S(=O)(=O)N2CCC(C(=O)NCc3ccccc3OC)CC2)c1 > 76.9 µM
CCOc1cc(C2C(C(=O)c3ccco3)=C(O)C(=O)N2CCc2ccccc2)ccc1O (centres undefined) > 76.9 µM
CC(c1ccccc1)N1C(=O)c2ccc(C(=O)NCc3ccco3)cc2C1=O (centres undefined) > 76.9 µM
CCN=C1SC(CC(=O)NC2CCCCC2)C(=O)N1CC (centres undefined) > 76.9 µM
CCCS(=O)(=O)N1CCCC(C(=O)NCCc2ccc(OC)c(OC)c2)C1 (centres undefined) > 76.9 µM
Cc1ccc(Cl)cc1NC(=O)COC(=O)C1CCCC1 > 76.9 µM
CCn1nc(NC(=O)c2ccco2)c2cc3ccc(C)cc3nc21 > 76.9 µM
CCOC(=O)N1CCC(NC(=O)C(CC(C)C)NC(=O)C2CCCCC2)CC1 (centres undefined) > 76.9 µM
CCOC(=O)C1CCN(C(=O)COc2ccc(Cl)cc2Cl)CC1 > 76.9 µM
Cc1ccc(C2C(C(=O)c3sc(C)nc3C)=C(O)C(=O)N2CCN(C)C)o1 (centres undefined) > 76.9 µM
O=C(NCSC1=NCCS1)c1ccccc1 > 76.9 µM
Cc1c(NC(=O)c2ccc(N3C(=O)C4C5C=CC(C5)C4C3=O)cc2)c(=O)n(-c2ccccc2)n1C (centres undefined) > 76.9 µM
COc1ccc(-c2cc(C(=O)OCC(=O)N(C)C)c3ccccc3n2)cc1 > 76.9 µM
